The other results are listed elsewhere or left out. The full chains were built here from the parent and the listed change. Inactive controls read about 0.05.
B1: TEV protease; numbered along this chain (parent)
chain: MGESLFKGPRDYNPISSSICHLTNESDGHTTSLYGIGFGPFIITNKHLFRRNNGTLVVQSLHGVFKVKDTTTLQQHLVDGRDMIIIRMPKDFPPFPQKLKFREPQREERICLVTTNFQTKSMSSMVSDTSCTFPSGDGIFWKHWIQTKDGQCGSPLVSTRDGFIVGIHSASNFTNTNNYFTSVPKNFMELLTNQEAQQWVSGWRLNADSVLWGGHKVFMVKPEEPFQPVKEATQL

Variants of: B1
Experiment: raw area under fraction-flipped curve 0-4 h after induction (AUC4h, not background-subtracted), DNA-recorder readout of cleavage of the substrate (dimensionless); higher = more cleavage of the substrate by the protease variant
Conditions: temperature: 34 °C; time window: 0-4 h after rhamnose induction
Method: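 In vivo DNA recorder in E. coli TOP10(DE3) ΔrhaA at 34 °C. Each TEVp single-site mutant (parent TEVp 0) is paired with a single-site variant of the 7-mer TEVs (canonical ENLYFQ|S). The substrate sits between flexible linkers in a Bxb1-sfGFP-TEVs-SsrA fusion, so cleavage stabilises Bxb1 and speeds flipping of a recombination array, read by NGS. The value is the raw area under the fraction-flipped curve over 0-4 h after rhamnose induction (AUC4h), with ≥20 reads per time point. It is not background-subtracted; inactive controls average about 0.047.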
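Further: Bxb1 expression induced with 0.2% (w/v) L-rhamnose at OD600 near 0.5, cultures sampled hourly, flipped fraction per protease–substrate barcode pair counted by paired-end Illumina sequencing.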

Variant	area with substrate EALYFQS	area with substrate ECLYFQS	area with substrate EGLYFQS	area with substrate EHLYFQS	area with substrate EILYFQS	area with substrate EKLYFQS	area with substrate ELLYFQS	area with substrate EMLYFQS	area with substrate EQLYFQS	area with substrate ERLYFQS	area with substrate ESLYFQS	area with substrate ETLYFQS	area with substrate EVLYFQS	area with substrate EYLYFQS	area with substrate EDLYFQS	area with substrate EFLYFQS	area with substrate EPLYFQS	area with substrate EWLYFQS	area with substrate EELYFQS
L22C	0.109	0.0944	0.0947	0.0831	0.0688	0.0968	0.0853	0.0999	0.0858	0.0895	0.0922	0.0698	0.083	0.0716					
L22H	0.0492		0.0284	0.0384	0.0397	0.0494	0.0357	0.0328	0.054	0.046	0.056		0.044	0.052	0.0377	0.0528	0.0339	0.0505	
L5P	0.0764						0.0661		0.0681	0.0595	0.0722							0.104	0.0484
S4Y	0.144	0.148		0.168	0.142	0.128	0.114	0.17	0.153		0.155					0.144	0.19	0.132	
S4I	0.133	0.128	0.123	0.0927	0.0995	0.102	0.19		0.173	0.122	0.133		0.0909	0.142		0.0881	0.161	0.13	
N13F	0.118	0.0944	0.0892	0.107	0.0773	0.0945	0.0731	0.111	0.0998	0.089	0.0878		0.0761			0.0607	0.138		0.113
N13M	0.112	0.117	0.1	0.109	0.0762		0.118	0.129		0.119	0.105	0.14	0.105	0.102					0.126
N13H	0.107	0.0954	0.0781		0.101	0.0766	0.11	0.116		0.0967	0.105		0.114						0.122
Y12M	0.0952	0.0963	0.0963	0.12		0.106		0.116	0.114	0.109	0.125	0.105	0.0908	0.13			0.106	0.108	0.0979
Y12N	0.141	0.091	0.0804	0.124	0.0953		0.104	0.0959		0.148	0.109		0.086	0.109					
Y12C	0.101	0.111		0.117	0.0884	0.119	0.0886	0.104	0.118		0.101	0.122	0.0816				0.138	0.0921	0.101
D11F	0.0929	0.0897	0.0945	0.113		0.0699		0.0952	0.11		0.11		0.0986	0.0714		0.11	0.112	0.085	
D11P	0.0611		0.0577	0.0649	0.0632	0.061			0.0603	0.0641	0.0614	0.0904	0.0665		0.0694	0.0739	0.0684	0.0585	
